Measured values reported in PubChem BioAssay AID1645887 (National Center for Advancing Translational Sciences (NCATS), 2021).
“And” between values parts separate entries of the source, which are not always exact repeats. Identical values can stand only once. The whole screen tested about 16,000 compounds, of which about 40 (0.2%) were called active. Another 1% or so got no clear call; they are omitted. Calls come from the whole dose curve; as a rule, active = well fitted activation curve with a large enough effect; inconclusive = small, poorly fitted or top-dose-only effect, or another doubt; inactive = no such curve, though single readings can be large or run the other way. Some of the results follow.

These compounds were tested against Rap guanine nucleotide exchange factor 4 (Homo sapiens) (UniProt Q8WZA2) (assay: Validation qHTS for agonist of cAMP-regulated guanine nucleotide exchange factor 4 (EPAC2)). Conditions: EPAC2 Rap1B BODIPY-GDP exchange, fluorescence; activation: hits give high values.
Summary of the method: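 Fluorescent exchange assay: 100 nM EPAC2 with 250 nM RAP1B-BODIPY-GDP and 50 uM GDP; compound added, 5 min at room temperature, then read (ex 480/em 540 nm) every 5 min for 30 min. Normalized to 6.5 mM cAMP agonist control.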
% is set by controls: 0 for no effect and ±100 for the full control effect.
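Note: exchange makes BODIPY-GDP fluorescence drop when released from Rap1B; series mostly up to about 150 µM.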

Chain of UniProt Q8WZA2 (Q8WZA2 whole entry, looked up): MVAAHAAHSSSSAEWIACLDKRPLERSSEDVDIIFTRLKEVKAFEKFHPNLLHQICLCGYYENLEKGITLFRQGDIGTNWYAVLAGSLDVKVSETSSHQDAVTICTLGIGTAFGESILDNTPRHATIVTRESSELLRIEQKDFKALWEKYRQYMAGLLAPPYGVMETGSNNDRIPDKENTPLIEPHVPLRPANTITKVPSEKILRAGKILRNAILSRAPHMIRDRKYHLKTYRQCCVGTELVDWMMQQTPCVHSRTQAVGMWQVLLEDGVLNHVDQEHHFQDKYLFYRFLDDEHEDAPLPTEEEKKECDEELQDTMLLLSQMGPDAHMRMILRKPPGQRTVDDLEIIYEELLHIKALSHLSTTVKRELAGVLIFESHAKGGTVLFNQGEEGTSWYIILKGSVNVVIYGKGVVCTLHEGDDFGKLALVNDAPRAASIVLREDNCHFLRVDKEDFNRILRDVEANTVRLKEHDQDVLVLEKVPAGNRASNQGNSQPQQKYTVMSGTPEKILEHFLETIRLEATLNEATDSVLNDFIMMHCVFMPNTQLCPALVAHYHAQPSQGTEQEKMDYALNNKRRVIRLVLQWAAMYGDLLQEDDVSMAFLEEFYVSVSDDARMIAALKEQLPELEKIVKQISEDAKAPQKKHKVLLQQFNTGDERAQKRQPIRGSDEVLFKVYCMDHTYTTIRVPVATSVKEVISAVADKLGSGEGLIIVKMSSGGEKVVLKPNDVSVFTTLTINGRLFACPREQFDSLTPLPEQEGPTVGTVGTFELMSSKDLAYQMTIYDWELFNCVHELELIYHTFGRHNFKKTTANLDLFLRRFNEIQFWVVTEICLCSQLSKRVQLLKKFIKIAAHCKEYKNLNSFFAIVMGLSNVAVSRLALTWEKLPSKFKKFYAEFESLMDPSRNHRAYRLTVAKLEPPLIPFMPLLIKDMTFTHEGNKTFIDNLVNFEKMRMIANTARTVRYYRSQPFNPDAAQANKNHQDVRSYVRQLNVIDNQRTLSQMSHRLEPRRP

activation, inactive:
NCCC(=O)N[C@@H](Cc1cnc[nH]1)C(=O)O -5.04%
NC(=O)c1cccnc1 -9.28%
CO/N=C(\C(=O)N[C@@H]1C(=O)N2C(C(=O)O)=C(COC(C)=O)CS[C@H]12)c1csc(N)n1 (stereo in doubt) 7.59%
Cc1cnc(CNc2cc(-c3cccc(NS(C)(=O)=O)c3)ncn2)cn1 -1.69%
Cc1cccc(CNc2ncnc3ccc(-c4ccccc4CN(C)C)cc23)c1 -16%
COc1cc(-c2cc(C)c3cccc(OC)c3n2)cc2c1OCCN(C(=O)CC1NC(=O)c3ccccc31)C2 (configuration not stated) -8.91%
COc1ccc(-c2nc3cnc(OC)nc3n(CCc3ccccc3)c2=O)cc1 -7.57%
Nc1nccs1 -18.7%
CC(C)NC(=O)N1CC[C@@]2(CCCN(C(=O)c3ccncc3)C2)C1 -11.5%
COc1ccc(Cl)cc1N1C(=O)[C@@H]2C[C@H]1CN2Cc1nc2ccccc2nc1C -24.6%
Cn1c(=O)c2c(ncn2CC(O)CO)n(C)c1=O (configuration not stated) 4.72% and 4.29%
CCNc1ncc2nc(-c3cc(F)cc(F)c3)c(=O)n(CCOC)c2n1 -13.8%
CC(CCC(=O)O)C1CCC2C3C(O)C[C@@H]4CC(O)CC[C@@]4(C)C3CC[C@@]12C (some centres not stated) -11.9% and 4.12%
COc1ccc(C(=O)N2CCC3(CC2)CCN(c2cccc(-c4ccccc4)c2)CC3)cc1 0.0215%
C=CCCCCCCCCC(=O)OC -2.17%
COc1ccc(-c2nc3cnc(N4CCNCC4)nc3n(C3CC3)c2=O)cc1 -0.379%
CC(C)=CCCC1(C)C=Cc2c(c(C)cc3c2[nH]c2ccccc23)O1 (configuration not stated) 24.9%
CCCCCC1CCNCC1 -15.7%
COCCn1c(=O)c(-c2ccc(F)cc2)nc2cnc(OCc3ccccc3)nc21 -23%
COc1ccccc1-c1cncnc1Nc1ccccc1 -15.8%
COc1ccc2[nH]cc(CCNc3ccnc(-c4ccccc4Cl)n3)c2c1 -5.37%
COc1cccc(Cn2c(=O)c(C)nc3cnc(N4CCNCC4)nc32)c1 4.92%
COC(=O)C(O)C1C(C)(C)C(OC(C)=O)C2CC3=C4CC(=O)OC(c5ccoc5)[C@]4(C)CCC3[C@@]1(C)C2=O (some centres not stated) -10.7%
C=C1CCC2[C@](C)(CO)[C@H](O)CC[C@@]2(C)[C@@H]1C/C=C1/C(=O)OC[C@H]1O (some centres not stated) -4.87%
O=C(c1cc(C(F)(F)F)cc(C(F)(F)F)c1)N1CCC2(CCCN(Cc3ccccc3)C2)CC1 -6.26%
CS(=O)c1ccc(-c2nc(-c3ccc(F)cc3)c(-c3ccncc3)[nH]2)cc1 (configuration not stated) -19.8% and -6.34%
COCCn1c(=O)c(-c2ccc(F)cc2)nc2cncnc21 -15.8%
CC(C)CN1CC[C@@]2(CCCN(C(=O)c3csnn3)C2)C1 -7.63%
CC(C)CN1CCC(=O)N(CCO)CC1 -3.13%
COc1cc(CN2CCc3nnc(C(NS(C)(=O)=O)C(C)C)n3CC2)ccc1F (configuration not stated) -2.91%
COc1ccc(OC)c(CN2CCOc3ccc(C(O)c4cccnc4)cc3C2)c1 (configuration not stated) -4.57%
CNC1(C)C2CCC(C2)C1(C)C (configuration not stated) -13.1% and -21.9%
Cc1nc2cncnc2n(Cc2ccccc2Cl)c1=O -13%
NC(=O)C1(N2CCCCC2)CCN(CCCC(=O)c2ccc(F)cc2)CC1 -6%
O=C(c1ccco1)N1CCC2(CC1)CCN(C(c1ccccc1)c1ccccc1)CC2 -3.07%
COCCn1c(=O)c(-c2cn(C)c3ccccc23)nc2cnc(OCc3ccccc3)nc21 -7.63%
CN(Cc1ccco1)c1nc(-c2cccc(C#N)c2)nc2ccccc12 -3.51%
S=c1nc[nH]c2nc[nH]c12 -17.7% and -9.32%
CC12CCC(C[N+](C)(CCC[N+](C)(C)C)C1)C2(C)C (configuration not stated) -3.9%
Cn1cc(-c2nc3cnc(Oc4ccccc4)nc3n(Cc3cccs3)c2=O)c2ccccc21 -10.6%
NS(=O)(=O)c1cc2c(cc1Cl)NC(Cc1ccccc1)NS2(=O)=O (configuration not stated) -6%
CC1=C(C(=O)O)N2C(=O)[C@@H](NC(=O)[C@H](N)c3ccc(O)cc3)[C@H]2SC1 6.46%
CN1CCN(c2ncncc2-c2ccoc2)CC1 7.18%
CN(CC1(C)CCCO1)S(=O)(=O)c1ccc(Cl)c(S(N)(=O)=O)c1 (configuration not stated) -11.1%
CC(CCC(=O)O)C1CCC2C3CC[C@@H]4CCCC[C@@]4(C)C3CC[C@@]12C (some centres not stated) -7.33%
C[C@@H](O)[C@H]1C(=O)N2C(C(=O)O)=C(SCCN=CN)C[C@H]12 -17.9% and -21.2%
O=S1(=O)CCO[C@H]2CCCC[C@@H]2N1Cc1ccccc1 -16.7%
N#CC(=C(/N)Sc1ccccc1N)/C(C#N)=C(\N)Sc1ccccc1N 14.3% and -1.06%
CN(C)C(=O)c1ccc(-c2nc(N(C)C)c3ccccc3n2)cc1 -5.68%
O=C(O)CC/C=C\C[C@@H]1CO[C@H](c2ccccc2Cl)O[C@@H]1c1ccccc1O -11.3%
Cc1cccc(CNc2ncncc2-c2cccnc2)c1 -0.945%
Nc1nc2c(c(=O)[nH]1)N=C(CNc1ccc(C(=O)NC(CCC(=O)O)C(=O)O)cc1)CN2 (configuration not stated) 4.18%
O=C(NCCN1Cc2ccccc2OC(c2ccccc2F)C1)c1cncs1 (configuration not stated) -11.2%
CN(C)c1ccc(-c2nc(N(C)C)c3ccccc3n2)cc1 -2.08%
O=C(O)CCC/C=C\C[C@@H]1[C@@H](/C=C/[C@H](O)C2Cc3ccccc3C2)[C@@H](F)C[C@@H]1O -29%
COc1ccc(CNC(=O)C[C@H]2C(=O)N(CCc3ccccc3)C[C@@H]2Cc2ccccc2)cc1 -11.9%
COc1ccccc1CN1CCC2(CC1)CCN(C(=O)c1ccco1)CC2 -13.9%
COc1ncc2nc(C)c(=O)n(C[C@H]3CCCO3)c2n1 -4.72%
COCCn1c(=O)c(-c2ccc(Cl)cc2)nc2cnc(N3CCNCC3)nc21 2.87%
Cc1c(C(=O)NCC(C)(C)N2CCOCC2)cnn1-c1ncc2c(n1)-c1ccccc1CC2 -0.682%
COc1cccc(CN(C)C(=O)c2cnn(-c3ncc4c(n3)-c3ccccc3CCC4)c2C)c1 -13.5%
CC12CCC(C1)C(C)(C)C2=O (configuration not stated) 9.93%
COc1ncc2ncc(=O)n(C)c2n1 4.8%
CCN(CC)c1ccc(/C=C/c2ccncc2)cc1 -14.4%
CN1CCN(c2cc(-c3ccccc3Cl)ncn2)CC1 -13.7%
CC(C)CN1CCC(=O)N([C@H](COc2ccccc2)c2ccccc2)CC1 -22.3%
COc1cc(C)c2c(=O)cc(-c3ccccc3)oc2c1 -6.39%
Cc1cc(C(=O)NCCN2Cc3ccccc3OC(c3ccccc3F)C2)no1 (configuration not stated) -7.97%
N[C@@H](CSS(=O)(=O)O)C(=O)O -0.487% and 1.11% and 5.69%
CS(=O)(=O)Nc1cccc(-c2nccc(-n3ccnc3)n2)c1 -17.1%
Cc1cnc(-n2ncc(C(=O)N(C)CCc3ccccn3)c2-c2cccs2)nc1-c1ccc(F)cc1 -14.7%
O=C(c1cccc(F)c1)N(Cc1cc2cc3c(cc2nc1N1CCOCC1)CCC3)CC1CCCO1 (configuration not stated) -18.8%
COC1[C@H](OC(N)=O)C(O)[C@H](Oc2ccc3c(O)c(NC(=O)c4ccc(O)c(CC=C(C)C)c4)c(=O)oc3c2C)OC1(C)C (some centres not stated) 8.27%
COCCN1CCN(C(=O)c2cnn(-c3ncc4c(n3)-c3ccc(OC)cc3CC4)c2C2CC2)CC1 -5.12%
O=C(C[n+]1cccc2cc(Cl)ccc21)c1ccc(I)cc1 -18.5%
COc1cc(OC)c(CN2CCOc3ccc(CN4CCC(O)CC4)cc3C2)c(OC)c1 -16.5%
CC(C)C[C@@H](CO)N1CCN(Cc2ccc([N+](=O)[O-])cc2)CCC1=O -9.36%
CC(C)(Oc1ccc(C2CC2(Cl)Cl)cc1)C(=O)O (configuration not stated) -32.2% and 6.11%
COCCn1c(=O)c(-c2ccc(F)c(F)c2)nc2cncnc21 3.12%
CCCCC[C@H](O)/C=C/[C@@H]1[C@@H](CCCCCCC(=O)O)[C@@H](O)C[C@H]1O -1.84%
COC(=O)N1CCC2(CC1)CN(c1ccccc1)C2 -14.8%
OC1(c2ccc3c(c2)CN(Cc2ccccn2)CCO3)CCN(c2ccccc2F)CC1 -53.2%
CN(C)Cc1ccccc1-c1cncnc1NCc1ccccc1 -18.5%
Brc1ccccc1-c1ccccc1 -18.1%
N#Cc1ccc(CN2CCCC3(CCN(C(=O)c4cccc(F)c4)CC3)C2)cc1 -1.26%
CCOc1nc2cccc(C(=O)OC(C)OC(=O)OC3CCCCC3)c2n1Cc1ccc(-c2ccccc2-c2nn[nH]n2)cc1 (configuration not stated) -25.3%
CN(C)Cc1ccccc1-c1ccc2ncnc(NC3CC3)c2c1 -14.1%
